Test results reported in the supplement of paper PMC10600219.
Several values for one entry are separate records, joined by “and”; a condition that tells them apart may be missing. Equal values may be shown once. Where a name gives a salt, the structure may show the parent alone. Whole data set: some 2,800 compounds, median “cell viability relative to vehicle” near 1.1, cut for the lowest 2% near 0.19. This is one part of the list.

test system: NCI-H2228 parental; test: cell viability relative to vehicle (fraction of vehicle); NCI-H2228 is an ALK-positive lung cancer line and DTP means drug-tolerant persister; higher = less growth inhibition; conditions: 100 nM; treatment time 6 days
In short: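 Values give cell viability as a fraction of vehicle-treated cells. Parental and drug-tolerant persister NCI-H2228 cells (persisters made with 1000 nM of a targeted drug for 13 days) were exposed in 384-well plates to the 3114-agent TargetMol anti-cancer compound library at 100 nM, with DMSO as vehicle. ATP was then read after 6 days by the CellTiter-Glo 3D Cell Viability Assay.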

Compound | cell viability
Cc1c(Cn2c(C)nc3c(C(=O)O)cc(N4CCOCC4)cc32)cccc1C(F)(F)F | 1.09
O=C(NCc1ccc(Oc2ccccc2)cc1)c1nc(-c2cc(Br)c(O)c(Br)c2)no1 | 0.915
Nc1cc(F)ccc1NC(=O)c1ccc(CNC(=O)/C=C/c2cccnc2)cc1 [Chidamide] | 0.862
Cc1c(CC(=O)O)c2cccnc2n1Cc1ccc(S(C)(=O)=O)cc1C(F)(F)F [Fevipiprant] | 1.14
Cc1[nH]c(/C=C2\C(=O)Nc3ccc(S(=O)(=O)Cc4c(Cl)cccc4Cl)cc32)c(C)c1C(=O)N1CCC[C@@H]1CN1CCCC1 | 1.11
N#CC(=C(/N)Sc1ccccc1N)/C(C#N)=C(\N)Sc1ccccc1N | 1.05
CC1=C(C(=O)O)N2C(=O)[C@@H](NC(=O)[C@H](N)c3ccc(O)cc3)[C@H]2SC1 [Cefadroxil] | 1.13
Nc1nc(Nc2ccc(S(N)(=O)=O)cc2)nn1C(=O)c1c(F)cccc1F | 1.03
CO[C@@H](C)Cn1c(=O)n(C)c2cnc3ccc(-c4cncc(C(C)(C)O)c4)cc3c21 | 0.412
CC(C)c1onc(-c2c(Cl)cccc2Cl)c1COc1ccc(/C=C/c2cccc(C(=O)O)c2)c(Cl)c1 | 1.03
Cc1ccc(C)c(OCCn2cc(C(=O)O)c3ccccc32)c1 | 0.92
C=CCN1CCCC1CNC(=O)c1cc2nn[nH]c2cc1OC (stereo not given) [Alizapride hydrochloride] | 1.22
COc1ccc(Br)cc1NC(=O)Nc1cccc2c1ccn2Cc1ccnc(N)c1 | 1.12
CC(C)C[C@H](NC(=O)c1cc2ccccc2s1)C(=O)N1CCN(C(=O)[C@H](CO)NS(=O)(=O)c2ccc(Cl)cc2Cl)CC1 | 1.04
CC(C)(Oc1ccc(C2CC2(Cl)Cl)cc1)C(=O)O (stereo not given) [Ciprofibrate] | 1.11
c1ccc2c(-c3cnn4cc(-c5ccc(N6CCNCC6)cc5)cnc34)ccnc2c1 | 1.07 and 1.13
O=C(CCN1CCN(C(=O)OCc2cc(Cl)cc(Cl)c2)CC1)c1ccc2[nH]c(=O)oc2c1 | 1.09
COc1ccc(-c2oc3c(CC=C(C)C)c(O)cc(O)c3c(=O)c2O)cc1 [Icaritin] | 1.1
CCOc1nc2cccc(C(=O)OC(C)OC(=O)OC3CCCCC3)c2n1Cc1ccc(-c2ccccc2-c2nn[nH]n2)cc1 (stereo not given) [Candesartan Cilexetil] | 1.03
COc1c(O)cc(O)c2c(=O)cc(-c3ccccc3)oc12 [Wogonin] | 1.1
Cc1ccc(NC(=S)NNc2c([N+](=O)[O-])cc(C(F)(F)F)cc2[N+](=O)[O-])cc1Cl | 1.09
O=C(COCC(=O)N1CCN(C(c2ccccc2)c2ccccc2)CC1)Nc1ccc(Cl)cc1C(=O)O [TM5275 sodium] | 0.996
Nc1ccc(S(N)(=O)=O)cc1 [Sulfanilamide] | 1.19
COc1cc2ncnc(Nc3ccc(Oc4ccccc4)cc3)c2cc1OC [Src Inhibitor 1] | 1.1
CC(C)=C1CC[C@@H](C)CC1=O [Pulegone] | 1.03

Compound | cell viability
O=C(O)/C=C/c1ccccc1 [Cinnamic acid] | 1.23
CCCOc1ccc(CCc2nc3cc(-c4c(C)noc4C)ccc3n2CCN2CCOCC2)cc1 [PF-CBP1 hydrochloride] | 1.06
Oc1ccc(-c2cc(=S)ss2)cc1 [Desmethylanethol trithione] | 1.03
CC(C)(C)C#Cc1cc(N(C(=O)[C@H]2CC[C@H](C)CC2)[C@H]2CC[C@H](O)CC2)c(C(=O)O)s1 [Lomibuvir] | 1.18
CCOC(=O)c1ccc(C#Cc2ccc3c(c2)C(C)(C)CCS3)nc1 [Tazarotene] | 0.702
Cn1c(=O)c(F)c(Nc2ccc(I)cc2F)c2c(=O)n(C[C@@H](O)CO)cnc21 | 0.818
COc1ccc(/C=C/C(=O)C2(C(=O)/C=C/c3ccc(OC)c(OC)c3)CCCCC2)cc1OC | 1.18
NCCNc1ccc(NCCN)c2c1C(=O)c1ccncc1C2=O [Pixantrone dimaleate] | 0.405
COC(=O)c1c2c(c3ccccc3c1O)OC(C)(C)C=C2 [Mollugin] | 1.07
COc1ccc(-c2cc3c(C)nc(N)nc3n([C@H]3CC[C@H](OCCO)CC3)c2=O)cn1 | 0.485
O=c1[nH]c(=O)n([C@H]2C[C@H](O)[C@@H](CO)O2)cc1/C=C/Br [Brivudine] | 1.05
CC(=O)OC(C)C[N+](C)(C)C (stereo not given) [Methacholine Chloride] | 1.05
CCCCOc1ccc(CC(=O)NO)cc1 [Bufexamac] | 1.15
C=CCc1ccccc1OCC(O)CNC(C)C (stereo not given) [Alprenolol] | 0.844
Oc1c(Cl)cc(Cl)cc1Sc1cc(Cl)cc(Cl)c1O [Bithionol] | 1.18
Cc1ccc(O)c([C@H](CCN(C(C)C)C(C)C)c2ccccc2)c1 [Tolterodine tartrate] | 1.19
Cc1cc(C)cc(NC(=O)Cc2ccc(OC(C)(C)C(=O)O)cc2)c1 [Efaproxiral Sodium] | 0.973
CCN1/C(=C/C(C)=O)Sc2ccc(OC)cc21 | 1.08
Nc1nc(=O)c2c([nH]1)NCC(CNc1ccc(C(=O)N[C@@H](CCC(=O)O)C(=O)O)cc1)N2C=O (stereo not given in full) [Calcium folinate] | 1.08
O=C(O)c1ccnc2ccccc12 [4-Quinolinecarboxylic acid] | 1
O=C(O)c1cc(=O)c2c(OCC(O)COc3cccc4oc(C(=O)O)cc(=O)c34)cccc2o1 [Sodium cromoglycate] | 1.03
O=c1c(O)c(-c2ccccc2)oc2cc(O)cc(O)c12 [Galangin] | 1.08
CCOc1ccc(Cc2cc([C@@H]3O[C@H](CO)[C@@H](O)[C@H](O)[C@H]3O)ccc2Cl)cc1 [Dapagliflozin] | 0.78
O=c1cc(CN2CCOCC2)occ1OCCCCCSc1ccnc2cc(C(F)(F)F)ccc12 | 1.03
C[C@@H]1O[C@@H](O[C@@H]2[C@H](O)[C@@H](O)[C@H](O[C@H]3CC[C@@]4(C)C(CC[C@]5(C)C4C=C[C@]46OC[C@@]7(CCC(C)(C)CC74)[C@@H](O)C[C@]65C)C3(C)C)O[C@@H]2CO[C@@H]2O[C@H](CO)[C@@H](O)[C@H](O)[C@H]2O)[C@H](O)[C@H](O)[C@H]1O (stereo not given in full) [Saikosaponin C] | 1.15

Compound | cell viability
COc1cc(/C=C/CO)cc(OC)c1O[C@@H]1O[C@H](CO)[C@@H](O)[C@H](O)[C@H]1O [eleutheroside-b] | 1.13
Nc1ccn([C@@H]2O[C@H](CO)[C@@H](O)[C@H]2O)c(=O)n1 [Cytidine] | 0.915
CC(C)CCC[C@@H](C)[C@H]1CC[C@H]2[C@@H]3CC=C4C[C@@H](O)CC[C@]4(C)[C@H]3CC[C@]12C [Cholesterol] | 1.15
CN(C)CCC(c1ccccc1)c1ccccn1 (stereo not given) [Pheniramine maleate] | 1.12
Cc1cccc(Nc2nc(-c3ccncc3)cs2)c1 | 0.833
Cn1cnc(N)c2ncnc1-2 [3-Methyladenine] | 1.07
CCN(CC)C(=O)N1CCN(C)CC1 [Diethylcarbamazine citrate] | 1.34
CCn1c(-c2nonc2N)nc2cnc(Oc3cccc(NC(=O)c4ccc(OCCN5CCOCC5)cc4)c3)cc21 | 1.19
CC[C@H](CC[C@@H](C)[C@H]1CC[C@H]2[C@@H]3CC=C4C[C@@H](O[C@@H]5O[C@H](CO)[C@@H](O)[C@H](O)[C@H]5O)CC[C@]4(C)[C@H]3CC[C@]12C)C(C)C [Sitogluside] | 1.17
CC[C@]1(O)C[C@@H]2CN(CCc3c([nH]c4ccccc34)[C@@](C(=O)OC)(c3cc4c(cc3OC)N(C)[C@H]3[C@@](O)(C(=O)OC)[C@H](OC(C)=O)[C@]5(CC)C=CCN6CC[C@]43[C@@H]65)C2)C1 [Vinblastine sulfate] | 0.319
CCc1cc(/C(C)=N/OCc2ccc(C3CCCCC3)c(C(F)(F)F)c2)ccc1CN1CC(C(=O)O)C1 [Siponimod] | 1.07
Cc1cc(CS(=O)(=O)c2ccccc2)cc(OCc2ccc(CN3CCC[C@@H]3CO)cc2)c1 | 1.1
Cc1c(C)c2c(c(C)c1O)CC[C@@](C)(CCC[C@H](C)CCC[C@H](C)CCCC(C)C)O2 [Vitamin E] | 1.1
CCN(CCCc1ccccc1)CCCc1ccccc1 [Alverine citrate] | 1.16
COc1cc2c(cc1OC)CN(CCc1ccc(NC(=O)c3cccc4c(=O)c5cccc(OC)c5[nH]c34)cc1)CC2 [Elacridar] | 1.03
Clc1ccc(COC(Cn2ccnc2)c2ccc(Cl)cc2Cl)cc1 (stereo not given) [Econazole] | 1.1
C[C@H](CCC(=O)NCC(=O)O)[C@H]1CC[C@H]2[C@@H]3[C@H](O)C[C@@H]4C[C@H](O)CC[C@]4(C)[C@H]3C[C@H](O)[C@]12C [Glycocholic acid] | 1.16
CO/N=C1\CN(c2nc3c(cc2F)c(=O)c(C(=O)O)cn3C2CC2)CC1CN (stereo not given) [Gemifloxacin mesylate] | 1
Clc1ccccc1C(c1ccccc1)(c1ccccc1)n1ccnc1 [Clotrimazole] | 1.17
NC(=O)NO [Hydroxyurea] | 1.13
Cc1ccccc1C(=O)N1CCc2cc(-c3nc(NC(=O)Cc4ccc5c(c4)OCO5)sc3C)ccc21 | 1.12
CC(C)(C)c1ccc(S(=O)(=O)NCc2ccc(C(=O)Nc3cccnc3)cc2)cc1 | 0.948
CC(C)=CCC/C(C)=C/COc1ccc2ccc(=O)oc2c1 [Auraptene] | 1
O=S(=O)(O)CCSSCCS(=O)(=O)O [Dimesna] | 0.952
CO[C@H]1C(=O)[C@]2(C)[C@@H](OC)C[C@H]3OC[C@@]3(OC(C)=O)[C@H]2[C@H](OC(=O)c2ccccc2)[C@]2(O)C[C@H](OC(=O)[C@H](O)[C@@H](NC(=O)OC(C)(C)C)c3ccccc3)C(C)=C1C2(C)C [Cabazitaxel] | 0.2
